ChEMBL document CHEMBL4888484, “Replenishing the malaria drug discovery pipeline: Screening and hit evaluation of the MMV Hit Generation Library 1 (HGL1) against asexual blood stage Plasmodium falciparum ,using a nano luciferase reporter read-out” (2022)
Several values for one entry are separate records, joined by “and”; a condition that tells them apart may be missing. Equal values may be shown once. The whole screen tested about 150,000 compounds, of which about 540 (0.36%) showed an effect of 50% or more. This is one part of the list.

System: Plasmodium falciparum
Assay: Primary screen in NF54 nanoGlo assay, in single point, at 2uM, 72h; a lower Z score goes with more inhibition
Type: functional, Erythrocyte
Details: timepoint 72 hour

Row | Compound | % Inhibition | Z score | % Inhibition (2 µM) | Z score (2 µM)
1 | COc1ccccc1NC(=O)NC(C)(C)c1ncc(OC)c(=O)[nH]1 | 4% | -0.85 | – | –
2 | CC(C)CCN1CC2(CCN([C@@H](C)CCN(C)C)CC2)OC1=O | -12% | 1.62 | – | –
3 | COC1CCCCCC1NC(=O)NC(C)(CO)C1CC1 (centres undefined) | 0% | -0.03 | – | –
4 | CCOC(=O)N1C(C(=O)NC2CC2)CCC1c1ccc(C)o1 (centres undefined) | -5% | 0.62 | – | –
5 | CCC[C@H](NS(=O)(=O)c1cc(-c2cc(C)no2)ccc1C)c1cccs1 | 0% | -0.03 | – | –
6 | Cc1cc(C(=O)Nc2nc(CC3CC3)ns2)ns1 | -9% | 1.64 | – | –
7 | CCN(CC(=O)Nc1ccc(NC(C)=O)cc1)C(=O)CN1C(=O)NC2(CCCC2)C1=O | 0% | -0.02 | – | –
8 | C[C@](O)(CNC(=O)NCc1cccs1)c1cc2ccccc2s1 | 4% | -0.62 | – | –
9 | O=S(=O)(c1ccc(-c2cc(C(F)(F)F)n[nH]2)s1)N1CCCc2ccccc21 | -5% | 0.99 | – | –
10 | COc1cc2ccccc2cc1C(=O)NC1CC1 | -13% | 1.22 | – | –
11 | O=C(Nc1ccc2c(c1)OCCCO2)c1cccc[n+]1[O-] | -7% | 0.91 | – | –
12 | Cc1n[nH]c(=O)c2c(NC(=O)CN(C)Cc3ccccc3Cl)oc(C)c12 | 2% | -0.16 | – | –
13 | C[C@](O)(CNC(=O)C1(c2cccnc2)CCCC1)c1ccc(F)cc1 | -5% | 0.76 | – | –
14 | O=C(NCC1(CO)CCC1)N1CCN(C/C=C/c2ccccc2)CC1 | 1% | -0.23 | – | –
15 | COc1ccccc1[C@H](CNC(=O)c1c[nH]nc1-c1ccsc1)OC(C)C | 2% | -0.32 | – | –
16 | CCNC(=O)c1csc(N2CCCCCC2)n1 | 10% | -1.74 | – | –
17 | C[C@H]1CS(=O)(=O)N(c2ccc(C(=O)NC(C)(C)C)c(Cl)c2)C1=O | -2% | 0.23 | – | –
18 | CN(Cc1ccc(CN2CCc3[nH]nc(C4CC4)c3C2)o1)S(C)(=O)=O | 4% | -0.64 | – | –
19 | COC(=O)c1ncsc1S(=O)(=O)NC(=O)c1ncoc1-c1ccccc1Cl | -18% | 1.61 | – | –
20 | CN(Cc1nnc2n1CCOCC2)C(=O)c1ccc(CNC(=O)C(C)(C)C)cc1 | -7% | 0.79 | – | –
21 | Cc1nc(C)c(CC(=O)NCc2cccnc2-n2ccnc2)s1 | -18% | 2.12 | – | –
22 | COc1ccc(-c2noc(-c3cccn3CC(=O)N3CCN(c4ccccc4OC)CC3)n2)cc1F | -11% | 1.46 | – | –

Row | Compound | % Inhibition | Z score | % Inhibition (2 µM) | Z score (2 µM)
23 | COc1cnc(NC(=O)N2CCn3c(cnc3C(F)(F)F)C2)s1 | -2% | 0.24 | – | –
24 | CCc1nnc(CNC(=O)C(=O)c2ccco2)o1 | -5% | 0.65 | – | –
25 | COC1CCN(CCNC(=O)c2cc(C)sc2C)CC1 | -1% | 0.22 | – | –
26 | O=C(NC1(CO)CC1)c1ncc(F)cc1F | -16% | 2.44 | – | –
27 | CC(C)(CNC(=O)c1cnn2c1CCC2)C1(O)CCCC1 | 5% | -0.6 | – | –
28 | O=c1cc(-c2ccncc2)nc(N2CCCC2)n1Cc1ccccc1F | -2% | 0.2 | – | –
29 | CCCCc1nnc(NS(=O)(=O)c2cnn3ccccc23)o1 | -15% | 2.84 | – | –
30 | Cc1cnn(CC(=O)NCc2ccc(C)n2C)c1 | -1% | 0.12 | – | –
31 | NC(=O)[C@H](NC(=O)CC(F)(F)F)c1cccc(Br)c1 | -14% | 1.25 | – | –
32 | CCOC(=O)C1(CNC(=O)Cc2ccc(OC(F)F)cc2)CCCC1 | -8% | 0.96 | – | –
33 | COc1ccc(NC(=O)c2cc(-c3ccccc3Cl)nn2C)cn1 | 8% | -1.04 | – | –
34 | Cc1nnc(-c2cccc(NC(=O)[C@@H]3CCCCN3C(=O)c3cc(C(C)C)no3)c2)s1 | -8% | 0.75 | – | –
35 | COc1ccc2c(c1)C1(CC1)CN(C(=O)N(C)CC(F)(F)F)C2 | -12% | 1.72 | – | –
36 | CN(C)C(=NC[C@@H](c1c(F)cccc1F)N(C)C)N(C)C | 3% | -0.48 | – | –
37 | CCCn1cnnc1COC(=O)CC1OCCO1 | -10% | 1.18 | – | –
38 | Cc1cc(NC(=O)C(C)(C)NS(C)(=O)=O)nn1C | -3% | 0.5 | – | –
39 | Cc1cc(C(=O)N2C[C@H]3CC[C@@H](C2)N(Cc2c(C)noc2C)C3=O)c(C)o1 | -3% | 0.56 | – | –
40 | C#CCCC1(CCC(=O)N2CCCC[C@H]2C(F)F)N=N1 | 6% | -0.72 | – | –
41 | CCC(CC)(CO)CN(C)C(=O)c1cncn1C | -1% | 0.25 | – | –
42 | CCNc1nc(C)cc(Nc2ccc(NS(=O)(=O)c3c(C)noc3C)cc2)n1 | 86% | -8.65 | – | –
43 | CC[C@@H](NC(=O)N1CCC2(CCCO2)CC1)c1ccccc1 | 7% | -0.9 | – | –
44 | Cc1nc(N2C[C@H](O)[C@@H](N(C)C)C2)nc2c1CCCC2 | -10% | 1.37 | – | –

Row | Compound | % Inhibition | Z score | % Inhibition (2 µM) | Z score (2 µM)
45 | CN1CCCN(c2ccc(NC(=O)N3CCC(C4OCCO4)CC3)cc2F)CC1 | -13% | 2.01 | – | –
46 | CCC[C@H](NC(=O)c1ccc(-c2ccc(OC)nc2)cc1)c1nccn1C | -10% | 1.3 | – | –
47 | Nc1[nH]ncc1-c1nnc(Nc2ccc3c(c2)OCO3)o1 | 3% | -0.34 | – | –
48 | CN(CC(C)(C)CO)C(=O)c1cc(F)cc(Cl)c1 | -8% | 1.32 | – | –
49 | O=C(NC1CCCC1)c1cc(S(=O)(=O)N2CCCCC2)ccc1F | -9% | 1.05 | – | –
50 | CS(=O)(=O)N1C[C@@H]2OCC(=O)N(Cc3ccccc3)[C@@H]2C1 | 4% | -0.67 | – | –
51 | CN(Cc1csc(C(C)(C)C)n1)[C@H]1CCS(=O)(=O)C1 | -5% | 0.63 | – | –
52 | COc1ccc(Cl)cc1-n1nc(C)nc1Cn1nccc1C | -14% | 2.28 | – | –
53 | CCc1nnc(COc2ccc(N3CCCCC3)c(Cl)c2)o1 | 8% | -1.49 | – | –
54 | Cc1cc(C(=O)Nc2c(C)nn(C)c2C)nc(N(C)C)n1 | 4% | -0.62 | – | –
55 | CCc1noc(CCc2nc(-c3ccccc3)no2)n1 | -1% | 0.09 | – | –
56 | COc1ccc(CCC(=O)N2CC[C@H](c3cccnc3)C2)cc1 | -1% | 0.17 | – | –
57 | N#Cc1cccc(C(=O)Nc2ccc(-c3cc[nH]n3)cc2)c1 | 35% | -3.95 | – | –
58 | COc1ccnc(N[C@H]2CCOC[C@@H]2OCc2ccccn2)n1 | -20% | 3.23 | – | –
59 | Cc1ncc(C(=O)Nc2c(-c3cnn(C)c3)nc3n2CCCC3)s1 | -12% | 1.73 | – | –
60 | COCc1cc(CNC2CC(C)N(C3CC3)C2)no1 (centres undefined) | 30% | -3.85 | – | –
61 | COC(=O)c1cnn(-c2ccc(C(=O)N3CCN(Cc4ccc5c(c4)OCO5)CC3)cc2)c1N | -12% | 1.9 | – | –
62 | O=C(NCc1ccccc1OCCO)C1CC12CCc1ccccc12 (centres undefined) | -14% | 1.19 | – | –
63 | Cc1cccn2cc(Cn3ncc(N4CCc5ccccc5C4)cc3=O)nc12 | -5% | 0.65 | – | –
64 | CC(C)[C@H](CNC(=O)Cc1ccoc1)Cc1ccccc1 | 2% | -0.3 | – | –
65 | Cc1ccc(-c2nnc(-c3cccc4ccccc34)n2-c2ccccc2)cc1 | -2% | 0.32 | – | –
66 | COc1cccc(-c2cc(C(=O)Nc3ccc(F)cc3)n3nc(-c4ccccc4)cc3n2)c1 | -5% | 0.73 | – | –

Row | Compound | % Inhibition | Z score | % Inhibition (2 µM) | Z score (2 µM)
67 | C[C@H]1COC2(CCC2)CN1C(=O)c1ccccc1OC1CCC1 | 6% | -1.25 | – | –
68 | O=C(Nc1ccc2nc3n(c(=O)c2c1)CCCC3)NC1CCCC1 | 3% | -0.31 | – | –
69 | CN(C(=O)OC(C)(C)C)[C@H]1CCN(C(=O)c2cccs2)C1 | -5% | 0.76 | – | –
70 | O=S(=O)(CCN1CCc2ccccc2C1)Oc1ccc(Br)cc1 | 2% | -0.31 | – | –
71 | Cc1cc2c(c(-c3ccc(Cl)cc3)c1)OC(CNC(=O)C1CCCO1)C2 (centres undefined) | 17% | -2.2 | – | –
72 | CC(C)COCCN[C@H]1CCN(C2CC2)C1 | 0% | 0.07 | – | –
73 | O=C(Nc1nc2c(s1)CN(C(=O)c1cccc(Cl)c1)CC2)NC1CCCC1 | -5% | 0.9 | – | –
74 | COC[C@@H]1CN(C(=O)c2ccccc2OC)C[C@H]1c1nc(C2CC2)no1 | -8% | 1.4 | – | –
75 | COc1ccc(-c2cc(-c3ccc(Cl)cc3)nc3c(C(=O)Nc4ccccc4)cnn23)cc1 | 4% | -0.49 | – | –
76 | O=C(NC1Cc2ccccc2C1)N1CCC[C@H](CCO)CC1 | -8% | 0.99 | – | –
77 | Cc1csc(NC(=O)CN2CCCCCC2)n1 | -13% | 1.32 | – | –
78 | Cc1cccc(NC(=O)OC(C)(C)C)c1C | -7% | 1.12 | – | –
79 | CC[C@H](C)N(Cc1ccccc1)S(=O)(=O)CC1CCCCC1 | 1% | -0.18 | – | –
80 | O=C(CCc1ccc(F)cc1)N1CCN(C(=O)CCc2ccc(F)cc2)c2cnccc21 | -6% | 0.77 | – | –
81 | CCCC1(CCC)NC(=O)N(CCC(C)(C)O)C1=O | -10% | 1.61 | – | –
82 | COCCn1nc(C(=O)N2CCC[C@H]2c2ccc3c(c2)OCCCO3)ccc1=O | 0% | 0.01 | – | –
83 | O=C(CCN1CCN(c2cc(F)cc(F)c2)CC1)NC1CC1 | -43% | 5.1 | – | –
84 | Cn1cc(C(=O)OCCC#Cc2ccccc2)cn1 | -12% | 2.25 | – | –
85 | Cc1cc(C(=O)NC2(C(N)=O)CCOCC2)sc1C | -2% | 0.3 | – | –
86 | CC(C)(C)OC(=O)N1CCc2n[nH]c(O)c2CC1 | – | – | -4% and -8% | 0.58 and 1.09
87 | COCCN(CC(=O)Nc1cn(C)nc1C)Cc1ccncc1 | -2% | 0.24 | – | –
